Results from the RNAGym collection of RNA variant scans (doi:10.7554/elife.90254).
Read counts are not given, so values of variants with three or more changes are uncertain.

B1: OR4K15 (parent)
chain: GUUAACGGUCAUAGGCCAUGGAAACUAGGAGCACCAUUUCGCUGCCAGUGAAGAAAUGAACAAAGAAAAUCUGGGCCAGGCAGGCAUCAAAAGAAAUAGUCUUGCGCUCAACCAGAAAGUCUGUAAUCAUUUUAAGGGUA

Variants of: B1
Assay: self-cleavage, relative activity (ratio to wild type); higher = more cleavage; in vitro, sequencing; the parent is a self-cleaving ribozyme
U2C U9A U37C A114G gave a self-cleavage of 0.27.
Work on U2C C46U A55G A62G yielded a self-cleavage of 1.42.
For U2A A30G A78U A95G, the self-cleavage was 0.69.
For U2C A18U A56G U127C, the self-cleavage was 0.26.
U2C U38C A114G showed a self-cleavage of 0.22.
For U2C C6U A24G A91U, the self-cleavage was 0.44.
U2A A5G U19C A56G A59G A67U U132C showed a self-cleavage of 0.79.
With U2C C71A U132C the self-cleavage was 1.12.
In the case of U2C A33G A66U, the self-cleavage is reported as 0.63.
For U2C A92G A117G A135G, the self-cleavage was 0.74.
In the case of U2C A56G A64G, the self-cleavage is reported as 0.81.
In the case of U2C A11C A47G A78G, the self-cleavage is reported as 0.33.
With U2A A27U U37C A60G the self-cleavage was 0.9.
For U2C A22C A91G U108C A110G, the self-cleavage was 0.02.
U2C A5G A111G showed a self-cleavage of 0.08.
U2C G20A U26C A33G U37C C40U A94G gave a self-cleavage of 0.15.
Work on U2G U3C A24G U103C yielded a self-cleavage of 1.24.
In the case of U2C A30G A91G, the self-cleavage is reported as 0.74.
In the case of U2C A56G A78U, the self-cleavage is reported as 0.07.
With U2A A33G U49C the self-cleavage was 0.75.
With U2C G41A A52G A129G A140G the self-cleavage was 1.58.
Variant U2C C6A A117G has a self-cleavage of 1.33.
With U2C A11U U39C U130C the self-cleavage was 1.13.
U2C U102A U103C A111G gave a self-cleavage of 0.02.
U2A A94G A114G showed a self-cleavage of 1.02.
U2C A55G A69G A92G U132C showed a self-cleavage of 1.08.
In the case of G1A A95G U120C, the self-cleavage is reported as 0.85.
With U2C U12C A33G A64G U130C A135C the self-cleavage was 0.28.
With U2A A56G A92G the self-cleavage was 1.74.
Work on U2C A5G A52G A60G U102C A111C A126G yielded a self-cleavage of 0.01.
Work on G1U A90G A94C U124C yielded a self-cleavage of 0.98.
U2C A27G U87C A135G gave a self-cleavage of 1.64.
In the case of U2C A60G A69G, the self-cleavage is reported as 1.04.
For U2C A54G A95U A126G, the self-cleavage was 1.08.
Variant U2C A11G U26C U38C U39C U87A A111U has a self-cleavage of 0.1.
Variant U2C A23G U122C has a self-cleavage of 0.97.
Variant U2C U9C A23G A33G A69G A91G has a self-cleavage of 0.5.
U2C A11U A67G A114G showed a self-cleavage of 0.42.
U2C A62U A129G gave a self-cleavage of 1.02.
U2C A55G A56G A82U A140G gave a self-cleavage of 0.1.
Variant U2C A59G A82G U127A has a self-cleavage of 0.78.
U2G A64G A118G showed a self-cleavage of 0.87.
In the case of U2C G83U U122G U130C, the self-cleavage is reported as 0.35.
For U2C A51U A59G A98G, the self-cleavage was 0.61.
Work on U2A A27G A118G U120A yielded a self-cleavage of 1.75.
Work on U2A A18G A27G A52G yielded a self-cleavage of 0.75.
For U2C U38C C40A U70C A94G A117U, the self-cleavage was 0.68.
U2A A24U A92U showed a self-cleavage of 0.45.
Variant U2C A23G A56G A62G has a self-cleavage of 1.03.
U2C A23G A118G gave a self-cleavage of 0.5.
For U2A A5G A110G, the self-cleavage was 0.18.
U2C U19C G83A C88A U102C U133A showed a self-cleavage of 0.31.
U2C A95G U108A U132C gave a self-cleavage of 0.02.
Work on U2C A89G A126G U132C yielded a self-cleavage of 0.26.
With G1A A23U U57A A67U U132C the self-cleavage was 1.47.
With U2C A69G A118G U130C the self-cleavage was 0.22.
In the case of U2G A56G A64G U97G, the self-cleavage is reported as 1.44.
Work on U2C U9C A24G A36U A55G U57C U100G yielded a self-cleavage of 1.09.
In the case of U2C A52G A78G, the self-cleavage is reported as 0.37.
U2C A51U U100C U102C gave a self-cleavage of 1.63.
Work on U2C A24G A47G U127A yielded a self-cleavage of 1.12.
U2G A82U G119A showed a self-cleavage of 0.72.
Work on U2C A89U U139A yielded a self-cleavage of 0.4.
For U2C A60G A64C, the self-cleavage was 1.13.
For U2A A68G A91G, the self-cleavage was 1.78.
For U2C A55G A96G A110C, the self-cleavage was 0.23.
Work on U2C A64G A78U A98G U122C yielded a self-cleavage of 0.07.
U2C U9C A11G U49C gave a self-cleavage of 0.45.
U2C U9C A11G U49C A68G gave a self-cleavage of 0.9.
In the case of U2C A36C G41U A62G A67U C88A, the self-cleavage is reported as 1.27.
Variant U2C U37C U122A has a self-cleavage of 1.36.
Work on G1A A33G A78U A116G yielded a self-cleavage of 0.18.
Work on U2C A13U A64G A98G yielded a self-cleavage of 0.5.
Work on U2C U19C A59G A82U U120C yielded a self-cleavage of 0.24.
Work on U2C C35A G44U A59G yielded a self-cleavage of 1.44.
In the case of U2C A18C A63U, the self-cleavage is reported as 1.72.
With U2C A89G A111U the self-cleavage was 0.16.
With U2C A13U A24G U39A the self-cleavage was 0.95.
Work on U2C A23G A63G yielded a self-cleavage of 0.72.
In the case of U2C A62G G83U A114G U120C U127A, the self-cleavage is reported as 0.07.
G1U A36U A96G showed a self-cleavage of 2.12.
U2C G15C G80A showed a self-cleavage of 0.18.
Variant U2C A78C A129U has a self-cleavage of 0.18.
Work on U2A U26C U37A A68G A114G U131C yielded a self-cleavage of 0.34.
